Here are results for 60 compounds from publication PMC13083723 (Patterns, 2026).

In all, about 5,400 compounds went through this assay and about 190 (3.5%) showed an effect of 50% or more. The list shows a part of the results.

The subject of the assay is Vero-E6. Briefly: primary screen, phospholipidosis by LipidTOX staining; higher = more effect of the substance. The conditions noted are these: 10 µM. How it is done:
To measure drug-induced PLD in Vero-E6 cells, we used the HCS LipidTOX Red Phospholipidosis Detection Reagent (Invitrogen, #H34351), which is non-toxic to cell growth and remains well retained after aldehyde fixation. In this setup, compounds (at 10 μM concentration) and controls (amiodarone: 10 μM concentration; DMSO: 0.1 v/v %) were added to clear-bottom, 384-well plates (PhenoPlate 384-well, black, optically clear flat bottom, tissue-culture treated, Revvity #6057302) using the Echo Liquid Handler (Labcyte).
In the case of `CSc1nc(NC2CCCC2)c([N+](=O)[O-])c(NC2CCCC2)n1`, the result_ITMP is listed as -1.26%. Regarding `CCC(CC)Nc1nc(C)c(-c2ccc(OC(F)(F)F)cc2OC)nc1OC`, the result_ITMP is given as -1.16%. Turning to `CCOC(=O)c1ccc(OC(=O)CCCCCNC(=N)N)cc1`, the result_ITMP is reported as -13.9%. Regarding `CC(C)(C)Cn1c(N)nc2ccc(-c3[nH]c(C(C)(C)C)nc3-c3ccc(F)cc3)nc21`, the result_ITMP stood at 36.4%. As for `CCCN[C@H]1CCc2nc(N)sc2C1`, the result_ITMP was -2.93%. On to `Cc1c(C(=O)Nc2ccc(N3C[C@@H](C)O[C@@H](C)C3)nc2)cccc1-c1ccc(OC(F)(F)F)cc1`, for which the result_ITMP is on record as -6.29%. Consider `O=C(NCc1ccccc1)OCCO`, for which the result_ITMP was 8.77%. `O=C(NC1CCN(CCCCC2(C(=O)NCC(F)(F)F)c3ccccc3-c3ccccc32)CC1)c1ccccc1-c1ccc(C(F)(F)F)cc1`: the result_ITMP stood at 62.5%. `COc1ccc(C(=O)CC2(O)C(=O)Nc3c(Cl)ccc(Cl)c32)cc1` (stereo not drawn): the result_ITMP was -1.47%. With `CNC(=O)c1cc2c(cn1)[nH]c1ccccc12`, the result_ITMP is -1.63%.

Consider `Cc1cc(=O)oc2cc(O)ccc12`, for which the result_ITMP is recorded as -3.44%. Consider `CCCCNc1ncc(-c2ccc(CN3CCOCC3)cn2)c(N[C@H]2CC[C@H](O)CC2)n1`, for which the result_ITMP is -2.9%.

In the case of `O=C([O-])C1[O][Sb]2[O]C(=O)C([O]2)C(C(=O)[O-])[O][Sb]2[O]C(=O)C1[O]2` (stereo not drawn), the result_ITMP is recorded as -8.7%. `C/C=C1/[C@H](O[C@@H]2O[C@H](CO)[C@@H](O)[C@H](O)[C@H]2O)OC=C(C(=O)OC)[C@H]1CC(=O)OCCc1ccc(O)c(O)c1`: the result_ITMP is reported as -1.62%.

As for `Cc1nc2ccccc2n1Cc1ccc(Cl)cc1`, the result_ITMP is reported as -2.71%. For `Clc1cccc(-c2nnnn2Cc2cccnc2)c1Cl`, the result_ITMP is reported as -5.12%. `O=C(O)Cc1ccc2c(c1)C(=O)c1ccccc1CO2`: the result_ITMP was -2.68%. As to `COc1cccc(-c2ccc(NC(=O)C3=C(C(=O)O)CCC3)c(F)c2)c1`, the result_ITMP is listed as -1.21%.

Turning to `O=C(O)CCc1ccc(NCc2cccc3c2CCCN3CCOc2ccccc2)cc1F`, the result_ITMP is -4.23%. Consider `CCC1(CC)C(=O)C=CNC1=O`, for which the result_ITMP is recorded as -8.67%. To `OCCCNc1cc(-c2ccnc(Nc3cccc(Cl)c3)n2)ccn1` belongs 1.41%; to `CC(=O)Nc1cccc2c1c(Sc1ccc(Cl)cc1)c(C)n2CC(=O)O`, -3.99%.

Take `FC(F)OC(F)(F)C(F)Cl` (stereo not drawn): the result_ITMP is -10%. As to `Nc1ncn([C@@H]2O[C@H](CO)[C@@H](O)[C@H]2O)c(=O)n1`, the result_ITMP is on record as 16.8%.

As for `CC(COc1ccccc1)N(CCCl)Cc1ccccc1` (stereo not drawn), the result_ITMP was determined as 0.48%. Turning to `CCCNC(C)C(=O)Nc1ccccc1C` (stereo not drawn), the result_ITMP is recorded as -3.79%. For `COc1ccc(CN(CCN(C)C)c2ccccn2)cc1`, the result_ITMP turned out to be 5.57%.

In the case of `COc1cc(/C=C/C(=O)N2CCN(CC(=O)N3CCCC3)CC2)cc(OC)c1OC`, the result_ITMP is -8.1%. To `CCCCCCCCCCCCCCCCCCOP(=O)([O-])OC1CC[N+](C)(C)CC1` belongs 0.66%. The figure for `O=C(Nc1ccc(OC(F)(F)F)cc1)c1sccc1NCc1ccnc2ccccc12` is -11.3%; for `CC(=O)c1ccc(S(=O)(=O)NC(=O)NC2CCCCC2)cc1` it is 4.62%; for `O=C(c1cccc(Br)c1)N1CCC(N2CCCC2)CC1` it is -11.1%. With `Cc1c(-c2ccnn2C)cc(C(=O)NCc2ccc(S(C)(=O)=O)cn2)c(=O)n1-c1cccc(C(F)(F)F)c1`, the result_ITMP is 0.22%. In the case of `CCOc1ccc(/C=C2\NCCc3cc(OCC)c(OCC)cc32)cc1OCC`, the result_ITMP was determined as 16.1%. To `CCSC(=N)N` belongs -3.01%; to `Cc1nnc(-c2ccc3occ(-c4ccc(S(C)=O)cc4)c3c2)o1` (stereo not drawn), -0.99%. On to `O=Cc1ccc(CO)o1`, for which the result_ITMP is listed as -2.91%. To `C=CCN1CCC23c4c5ccc(O)c4O[C@H]2C(=O)CC[C@@]3(O)[C@H]1C5` belongs -3.91%. Turning to `COC(=O)c1cnn(-c2ccc(F)cc2F)c1/C=N/NC(=S)NC(C)(C)C`, the result_ITMP was -1.41%.

With `Cn1cc(-c2ccc(F)c(C(F)(F)F)c2)nc1C1CCN(c2ncnc3[nH]ncc23)CC1`, the result_ITMP came to 0.1%. Regarding `CCOC(=O)[C@H](CCc1ccccc1)N[C@H]1CCc2ccccc2N(CC(=O)O)C1=O`, the result_ITMP was 30.3%. Consider `COc1cccc(-n2nc(C(=O)O)cc2-c2ccc(C3CCCCC3)c(Cl)c2)c1`, for which the result_ITMP was -0.33%. Turning to `Nn1cnc2cc3ccccc3cc2c1=O`, the result_ITMP is given as -3.79%. To `Cc1nc(NC(=O)N2CCC[C@H]2C(N)=O)sc1-c1csc(C(C)(C)C)n1` belongs 0.88%; to `COC1=C(OC)C(=O)C(CCCCCCCCCCO)=C(C)C1=O`, 3.89%; to `Cc1onc(O)c1CC(N)C(=O)O` (racemic) [R4A_0004356_001 / SPE_A34716233], 0.42%. With `CCNC(=O)N1CCN(CCCC(c2ccc(F)cc2)c2ccc(F)cc2)CC1`, the result_ITMP came to 8.88%. Turning to `C[C@]12CC[C@H]3[C@@H](CC[C@@]45O[C@@H]4C(O)=C(C#N)C[C@]35C)[C@@H]1CC[C@@H]2O`, the result_ITMP is -0.39%. Regarding `O=C(N/N=C/c1ccc([N+](=O)[O-])o1)c1cc([N+](=O)[O-])cc([N+](=O)[O-])c1O`, the result_ITMP was -5.79%.

`C[C@@H](N[C@H]1CCCC[C@@H]1NC(=O)c1ccc(Cl)cc1)c1cccc2ccccc12`: the result_ITMP worked out at 37.1%. For `NCCCC[C@H](N[C@@H](CCc1ccccc1)C(=O)O)C(=O)N1CCC[C@H]1C(=O)O`, the result_ITMP is listed as -2.35%.

`COc1cc(C[C@H](C)[C@H](C)Cc2ccc3c(c2)OCO3)ccc1O`: the result_ITMP is -2.28%.

As for `CCCCOCCOc1nc(-c2ccc(C(=O)O)c(F)c2)sc1C`, the result_ITMP is 7.08%. For the compound `COc1ccc(NC(=O)c2ccc(-c3ccc(-c4noc(C)n4)cc3C)cc2)cc1OCCN(C)C`, the result_ITMP turned out to be 81.5%. Consider `CC(C)(C)NC[C@H](O)COc1nsnc1N1CCOCC1`, for which the result_ITMP was -1.83%. Take `Cc1ccc(C(=O)Nc2ccc(CN3CCN(C)CC3)c(C(F)(F)F)c2)cc1C#Cc1cnc2cccnn12`: the result_ITMP is recorded as 11.4%. Consider `C=C(c1ccccc1OCc1cccc(Cl)c1)n1ccnc1`, for which the result_ITMP was found to be 2.27%. To `c1ccc2c(c1)CCC[C@H]2Nc1nc2ccccc2[nH]1` belongs -0.25%; to `O=C(O)Cc1ccc(OCc2ccccc2)c(Cl)c1`, 2.22%. To `C[C@@]12CCc3occc3[C@H]1CC[C@@]13C[C@@H](CC[C@H]12)[C@@](O)(CO)C3` belongs -0.51%.
